# Experimental data as given in US20250263469A1 (HOSPITAL FOR SICK CHILDREN, published 2025).
# B1: MB 192 (other)
# chain 1: DIVMTQSPLSLPVTPGEPASISCRSSQSLLHSNGYNYLDWYLQKPGQSPQLLIYAASSLQSGVPDRFSGSGSGTDFTLKISRVEAEDVGVYYCMQALQTPYTFGQGTKLEIKRTVAAPSVFIFPPSDEQLKSGTASVVCLLNNFYPREAKVQWKVDNALQSGNSQESVTEQDSKDSTYSLSSTLTLSKADYEKHKVYACEVTHQGLSSPVTKSFNRGECGGGGSGGGGSGGGGSGGGGSGGGGSGGGGSGGGGSGGGGSGGGGSGGGGSGGGGSGGGGSGGGGSGGGGSQVQLVQSGAEVKKPGSSVKVSCKASGGTFSSYAISWVRQAPGQGLEWMGWINPNSGGANYAQKFQGRVTITADESTSTAYMELSSLRSEDTAVYYCSTYYYDSSGYSTDYWGQGTLVTVSSASTKGPSVFPLAPSSKSTSGGTAALGCLVKDYFPEPVTVSWNSGALTSGVHTFPAVLQSSGLYSLSSVVTVPSSSLGTQTYICNVNHKPSNTKVDKKVEPKSCGGGGSGGGGSGGGGSGGGGSGGGG[not shown - about 200 residues]
# chain 2: [not shown - human IgG1 Fc]GGGGSGGGGSGGGGSGGGGSGGGGSGGGGSGGGGSGGGGSGGGGSGGGGSGGGGSGGGGSGGGGSGGGGS[not shown - human IgG1 Fc]GGGGSGGGGSGGGGSGGGGSGGGGSGGSSQIRQNYSTDVEAAVNSLVNLYLQASYTYLSLGFYFDRDDVALEGVSHFFRELAEEKREGYERLLKMQNQRGGRALFQDIKKPAEDEW
# chain 3: DIVMTQSPLSLPVTPGEPASISCRSSQSLLHSNGYNYLDWYLQKPGQSPQLLIYAASSLQSGVPDRFSGSGSGTDFTLKISRVEAEDVGVYYCMQALQTPYTFGQGTKLEIKRTVAAPSVFIFPPSDEQLKSGTASVVCLLNNFYPREAKVQWKVDNALQSGNSQESVTEQDSKDSTYSLSSTLTLSKADYEKHKVYACEVTHQGLSSPVTKSFNRGECGGGGSGGGGSGGGGSGGGGSGGGGSGGGGSGGGGSGGGGSGGGGSGGGGSGGGGSGGGGSGGGGSGGGGSQVQLVQSGAEVKKPGSSVKVSCKASGGTFSSYAISWVRQAPGQGLEWMGWINPNSGGANYAQKFQGRVTITADESTSTAYMELSSLRSEDTAVYYCSTYYYDSSGYSTDYWGQGTLVTVSSASTKGPSVFPLAPSSKSTSGGTAALGCLVKDYFPEPVTVSWNSGALTSGVHTFPAVLQSSGLYSLSSVVTVPSSSLGTQTYICNVNHKPSNTKVDKKVEPKSCGGGGSGGGGSGGGGSGGGGSGGGGSGKTPDAMKAAMALEKKLNQALLDLHALGSARTDPHLCDFLETHFLDEEVKLIKKMGDHLTNLHRLGGPEAGLGEYLFERLTLRHD
# B2: MB 180 (other)
# chain 1: DIVMTQSPLSLPVTPGEPASISCRSSQSLLHSNGYNYLDWYLQKPGQSPQLLIYAASSLQSGVPDRFSGSGSGTDFTLKISRVEAEDVGVYYCQQYYSSPYTFGQGTKLEIKRTVAAPSVFIFPPSDEQLKSGTASVVCLLNNFYPREAKVQWKVDNALQSGNSQESVTEQDSKDSTYSLSSTLTLSKADYEKHKVYACEVTHQGLSSPVTKSFNRGECGGGGSGGGGSGGGGSGGGGSGGGGSGGGGSGGGGSGGGGSGGGGSGGGGSGGGGSGGGGSGGGGSGGGGSQVQLVQSGAEVKKPGSSVKVSCKASGYTFTSYAMHWVRQAPGQGLEWMGRISPRSGGTKYAQRFQGRVTITADESTSTAYMELSSLRSEDTAVYYCAREAVAGTHPQAGDFDLWGRGTLVTVSSASTKGPSVFPLAPSSKSTSGGTAALGCLVKDYFPEPVTVSWNSGALTSGVHTFPAVLQSSGLYSLSSVVTVPSSSLGTQTYICNVNHKPSNTKVDKKVEPKSCGGGGSGGGGSGGGGSGGGGSGGGG[not shown - about 200 residues]
# chain 2: B1 chain 2
# chain 3: DIVMTQSPLSLPVTPGEPASISCRSSQSLLHSNGYNYLDWYLQKPGQSPQLLIYAASSLQSGVPDRFSGSGSGTDFTLKISRVEAEDVGVYYCQQYYSSPYTFGQGTKLEIKRTVAAPSVFIFPPSDEQLKSGTASVVCLLNNFYPREAKVQWKVDNALQSGNSQESVTEQDSKDSTYSLSSTLTLSKADYEKHKVYACEVTHQGLSSPVTKSFNRGECGGGGSGGGGSGGGGSGGGGSGGGGSGGGGSGGGGSGGGGSGGGGSGGGGSGGGGSGGGGSGGGGSGGGGSQVQLVQSGAEVKKPGSSVKVSCKASGYTFTSYAMHWVRQAPGQGLEWMGRISPRSGGTKYAQRFQGRVTITADESTSTAYMELSSLRSEDTAVYYCAREAVAGTHPQAGDFDLWGRGTLVTVSSASTKGPSVFPLAPSSKSTSGGTAALGCLVKDYFPEPVTVSWNSGALTSGVHTFPAVLQSSGLYSLSSVVTVPSSSLGTQTYICNVNHKPSNTKVDKKVEPKSCGGGGSGGGGSGGGGSGGGGSGGGGSGKTPDAMKAAMALEKKLNQALLDLHALGSARTDPHLCDFLETHFLDEEVKLIKKMGDHLTNLHRLGGPEAGLGEYLFERLTLRHD
# B3: MB 254 (other)
# chain 1: DIQMTQSPSSLSASVGDRVTITCRASQGISSYLAWYQQKPGKAPKLLIYDASSLQIGVPSRFSGSGSGTDFTLTISSLQPEDFATYYCLQSYSTPPWTFGQGTKVEIKRTVAAPSVFIFPPSDEQLKSGTASVVCLLNNFYPREAKVQWKVDNALQSGNSQESVTEQDSKDSTYSLSSTLTLSKADYEKHKVYACEVTHQGLSSPVTKSFNRGECGGGGSGGGGSGGGGSGGGGSGGGGSGGGGSGGGGSGGGGSGGGGSGGGGSGGGGSGGGGSGGGGSGGGGSEVQLLESGGGLVQPGGSLRLSCAASGFTFSSSAMHWVRQAPGKGLEWVSAIGTGGDTYYADSVKGRFTISRDNSKNTLYLQMNSLRAEDTAVYYCAREGDGYNFYFDYWGQGTLVTVSSASTKGPSVFPLAPSSKSTSGGTAALGCLVKDYFPEPVTVSWNSGALTSGVHTFPAVLQSSGLYSLSSVVTVPSSSLGTQTYICNVNHKPSNTKVDKKVEPKSCGGGGSGGGGSGGGGSGGGGSGGGG[not shown - about 200 residues]
# chain 2: B1 chain 2
# chain 3: DIQMTQSPSSLSASVGDRVTITCRASQGISSYLAWYQQKPGKAPKLLIYDASSLQIGVPSRFSGSGSGTDFTLTISSLQPEDFATYYCLQSYSTPPWTFGQGTKVEIKRTVAAPSVFIFPPSDEQLKSGTASVVCLLNNFYPREAKVQWKVDNALQSGNSQESVTEQDSKDSTYSLSSTLTLSKADYEKHKVYACEVTHQGLSSPVTKSFNRGECGGGGSGGGGSGGGGSGGGGSGGGGSGGGGSGGGGSGGGGSGGGGSGGGGSGGGGSGGGGSGGGGSGGGGSEVQLLESGGGLVQPGGSLRLSCAASGFTFSSSAMHWVRQAPGKGLEWVSAIGTGGDTYYADSVKGRFTISRDNSKNTLYLQMNSLRAEDTAVYYCAREGDGYNFYFDYWGQGTLVTVSSASTKGPSVFPLAPSSKSTSGGTAALGCLVKDYFPEPVTVSWNSGALTSGVHTFPAVLQSSGLYSLSSVVTVPSSSLGTQTYICNVNHKPSNTKVDKKVEPKSCGGGGSGGGGSGGGGSGGGGSGGGGSGKTPDAMKAAMALEKKLNQALLDLHALGSARTDPHLCDFLETHFLDEEVKLIKKMGDHLTNLHRLGGPEAGLGEYLFERLTLRHD
# B4: MB 158 (other)
# chain 1: DIQMTQSPSSLSASVGDRVTITCRASQSISRYLNWYQQKPGKAPKLLIYDASNLESGVPSRFSGSGSGTDFTLTISSLQPEDFATYYCQQANSFPLTFGGGTKVDIKRTVAAPSVFIFPPSDEQLKSGTASVVCLLNNFYPREAKVQWKVDNALQSGNSQESVTEQDSKDSTYSLSSTLTLSKADYEKHKVYACEVTHQGLSSPVTKSFNRGECGGGGSGGGGSGGGGSGGGGSGGGGSGGGGSGGGGSGGGGSGGGGSGGGGSGGGGSGGGGSGGGGSGGGGSQVQLVQSGAEVKKPGASVKVSCKASGYTFTGYYMHWVRQAPGQGLEWMGWINPLNGGTNFAPKFQGRVTMTRDTSTSTVYMELSSLRSEDTAVYYCARDPGGSYSNDAFDIWGQGTLVTVSSASTKGPSVFPLAPSSKSTSGGTAALGCLVKDYFPEPVTVSWNSGALTSGVHTFPAVLQSSGLYSLSSVVTVPSSSLGTQTYICNVNHKPSNTKVDKKVEPKSCGGGGSGGGGSGGGGSGGGGSGGGG[not shown - about 200 residues]
# chain 2: B1 chain 2
# chain 3: DIQMTQSPSSLSASVGDRVTITCRASQSISRYLNWYQQKPGKAPKLLIYDASNLESGVPSRFSGSGSGTDFTLTISSLQPEDFATYYCQQANSFPLTFGGGTKVDIKRTVAAPSVFIFPPSDEQLKSGTASVVCLLNNFYPREAKVQWKVDNALQSGNSQESVTEQDSKDSTYSLSSTLTLSKADYEKHKVYACEVTHQGLSSPVTKSFNRGECGGGGSGGGGSGGGGSGGGGSGGGGSGGGGSGGGGSGGGGSGGGGSGGGGSGGGGSGGGGSGGGGSGGGGSQVQLVQSGAEVKKPGASVKVSCKASGYTFTGYYMHWVRQAPGQGLEWMGWINPLNGGTNFAPKFQGRVTMTRDTSTSTVYMELSSLRSEDTAVYYCARDPGGSYSNDAFDIWGQGTLVTVSSASTKGPSVFPLAPSSKSTSGGTAALGCLVKDYFPEPVTVSWNSGALTSGVHTFPAVLQSSGLYSLSSVVTVPSSSLGTQTYICNVNHKPSNTKVDKKVEPKSCGGGGSGGGGSGGGGSGGGGSGGGGSGKTPDAMKAAMALEKKLNQALLDLHALGSARTDPHLCDFLETHFLDEEVKLIKKMGDHLTNLHRLGGPEAGLGEYLFERLTLRHD
# Target: SARS-CoV-2 Spike on pseudotyped virus (PsV) (SARS-CoV-2)
# Assay: cell-based or functional assay
row,Binder,"IC50 SARS-CoV2 PsV, MB [µg/mL]"
1,B1,0.79
2,B2,0.89
3,B3,9.3
4,B4,0.1

# Target: SARS-CoV-2 Spike on pseudotyped virus (PsV) (SARS-CoV-2)
# Assay: cell-based or functional assay
# Remark: another data set of the same source
row,Binder,"Median IC50, SARS-CoV-2 PsV neutralization [µg/mL]"
1,B1,0.79
2,B2,0.89
3,B3,9.3
4,B4,0.1
